According to the supplement of paper PMC4604168 (melanoma cell lines):
Some of the results follow. Most values come without repeats; read them as rough.

Experiments:
Assay in all cases: cell count relative to DMSO control; melanoma cells; higher = more viable cells
Conditions in all cases: library dose: low library concentration; 72 h
[1] = tested on: COLO792
[2] = tested on: COLO800
[3] = tested on: COLO829
[4] = tested on: G361
[5] = tested on: IPC-298
[6] = tested on: IST-MEL1
[7] = tested on: LB2518-MEL
[8] = tested on: LOXIMVI
[9] = tested on: MEL-HO
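Further: cell number obtained by counting DAPI-stained nuclei in high-throughput microscope images with image analysis software, screen run in 1,536-well plates.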

## CCCCCCCCc1ccc(CCC(N)(CO)CO)cc1 [fingolimod] + CO[C@@H]1[C@H](N(C)C(=O)c2ccccc2)C[C@H]2O[C@]1(C)n1c3ccccc3c3c4c(c5c6ccccc6n2c5c31)C(=O)NC4 [Midostaurin] (first compound 2 µM, partner dose 0.08 µM)
[1]
  cell count: 80.8%
[2]
  cell count: 58.9%
[3]
  cell count: 81.6%
[4]
  cell count: 92.3%
[5]
  cell count: 96.3%
[6]
  cell count: 101%
[7]
  cell count: 113%
[8]
  cell count: 81.6%
[9]
  cell count: 89.5%

## NC(=O)c1ccc(N(C(N)=O)c2c(F)cccc2F)nc1-c1ccc(F)cc1F + O=C(O)c1ccc(-c2c[nH]c3ncc(-c4ccccc4)cc23)cc1C1CCCC1 [GSK650394] (first compound 0.4 µM, partner dose 0.16 µM)
[1]
  cell count: 94.2%
[2]
  cell count: 144%
[3]
  cell count: 92.8%
[4]
  cell count: 103%
[5]
  cell count: 98.5%
[6]
  cell count: 97.6%
[7]
  cell count: 91.1%
[8]
  cell count: 162%
[9]
  cell count: 103%

## CCCCCCCCc1ccc(CCC(N)(CO)CO)cc1 [fingolimod] + COc1cc2ncnc(Nc3ccc(Oc4ccccc4)cc3)c2cc1OC [SrcI1] (first compound 2 µM, partner dose 2 µM)
[1]
  cell count: 92.9%
[2]
  cell count: 99.4%
[3]
  cell count: 110%
[4]
  cell count: 87.2%
[5]
  cell count: 98.4%
[6]
  cell count: 89.7%
[7]
  cell count: 99.6%
[8]
  cell count: 75.4%
[9]
  cell count: 98.6%

## Cc1ccc(NC(=O)c2cccc(N(C)C)c2)cc1NC(=O)c1ccc(O)cc1 + Cc1cc(N2CCOCC2)cc2[nH]c(-c3c(NC[C@@H](O)c4cccc(Cl)c4)cc[nH]c3=O)nc12 [BMS536924] (first compound 2 µM, partner dose 0.2 µM)
[1]
  cell count: 82.2%
[2]
  cell count: 81.5%
[3]
  cell count: 106%
[4]
  cell count: 96.4%
[5]
  cell count: 81.7%
[6]
  cell count: 86.9%
[7]
  cell count: 91.3%
[8]
  cell count: 107%
[9]
  cell count: 93.5%

## CC(C)(C)c1cnc(CSc2cnc(NC(=O)C3CCNCC3)s2)o1 + NCC(=O)Nc1ccc(-n2nc(C(F)(F)F)cc2-c2ccc3c(ccc4ccccc43)c2)cc1 [OSU03012] (first compound 0.01 µM, partner dose 1 µM)
[1]
  cell count: 90.9%
[2]
  cell count: 93.2%
[3]
  cell count: 84.7%
[4]
  cell count: 96.5%
[5]
  cell count: 93.3%
[6]
  cell count: 101%
[7]
  cell count: 96.6%
[8]
  cell count: 83.3%
[9]
  cell count: 94.7%

## CCCCCCCCc1ccc(CCC(N)(CO)CO)cc1 [fingolimod] + Cc1cc([N+](=O)[O-])ccc1NS(=O)(=O)c1cc(Cl)ccc1Cl [FH535] (first compound 2 µM, partner dose 1 µM)
[1]
  cell count: 95.3%
[2]
  cell count: 117%
[3]
  cell count: 110%
[4]
  cell count: 99.4%
[5]
  cell count: 94.2%
[6]
  cell count: 93.1%
[7]
  cell count: 101%
[8]
  cell count: 87.7%
[9]
  cell count: 89.2%

## NC(=O)c1ccc(N(C(N)=O)c2c(F)cccc2F)nc1-c1ccc(F)cc1F + COc1cc(Nc2ncc(F)c(Nc3ccc4c(n3)NC(=O)C(C)(C)O4)n2)cc(OC)c1OC [Tamatinib] (first compound 0.4 µM, partner dose 0.4 µM)
[1]
  cell count: 48.8%
[2]
  cell count: 83.5%
[3]
  cell count: 95.6%
[4]
  cell count: 82.2%
[5]
  cell count: 90.6%
[6]
  cell count: 88.6%
[7]
  cell count: 82.6%
[8]
  cell count: 106%
[9]
  cell count: 90.2%

## CCCCCCCCc1ccc(CCC(N)(CO)CO)cc1 [fingolimod] + O=C(Nc1ccccc1)c1cc([N+](=O)[O-])ccc1Cl [GW9662] (first compound 2 µM, partner dose 2 µM)
[1]
  cell count: 105%
[2]
  cell count: 99.1%
[3]
  cell count: 92.4%
[4]
  cell count: 105%
[5]
  cell count: 98.3%
[6]
  cell count: 94.5%
[7]
  cell count: 113%
[8]
  cell count: 99%
[9]
  cell count: 91.4%

## Cc1ccc(NC(=O)c2cccc(N(C)C)c2)cc1NC(=O)c1ccc(O)cc1 + NC(=O)Nc1cc(-c2cccc(F)c2)sc1C(=O)N[C@H]1CCCNC1 [AZD7762] (first compound 2 µM, partner dose 0.02 µM)
[1]
  cell count: 104%
[2]
  cell count: 93%
[3]
  cell count: 90.8%
[4]
  cell count: 101%
[5]
  cell count: 89.5%
[6]
  cell count: 110%
[7]
  cell count: 99.7%
[8]
  cell count: 60.6%
[9]
  cell count: 104%

## NC(=O)c1ccc(N(C(N)=O)c2c(F)cccc2F)nc1-c1ccc(F)cc1F + O=C1NC(=O)/C(=C/c2ccc(-c3ccc(F)cc3O)o2)S1 [AS252424] (first compound 0.4 µM, partner dose 1 µM)
[1]
  cell count: 93.7%
[2]
  cell count: 65.5%
[3]
  cell count: 98.4%
[4]
  cell count: 92.7%
[5]
  cell count: 96%
[6]
  cell count: 97.9%
[7]
  cell count: 81.4%
[8]
  cell count: 117%
[9]
  cell count: 91%

## CCCCCCCCc1ccc(CCC(N)(CO)CO)cc1 [fingolimod] + COc1cc(Nc2ncc(F)c(Nc3ccc4c(n3)NC(=O)C(C)(C)O4)n2)cc(OC)c1OC [Tamatinib] (first compound 2 µM, partner dose 0.4 µM)
[1]
  cell count: 50.5%
[2]
  cell count: 91.1%
[3]
  cell count: 82.5%
[4]
  cell count: 87.3%
[5]
  cell count: 83.2%
[6]
  cell count: 96.2%
[7]
  cell count: 88.8%
[8]
  cell count: 100%
[9]
  cell count: 76.9%

## Cc1ccc(NC(=O)c2cccc(N(C)C)c2)cc1NC(=O)c1ccc(O)cc1 + NCC(=O)Nc1ccc(-n2nc(C(F)(F)F)cc2-c2ccc3c(ccc4ccccc43)c2)cc1 [OSU03012] (first compound 2 µM, partner dose 1 µM)
[1]
  cell count: 88%
[2]
  cell count: 66.9%
[3]
  cell count: 90.9%
[4]
  cell count: 122%
[5]
  cell count: 65.8%
[6]
  cell count: 92.1%
[7]
  cell count: 90%
[8]
  cell count: 65.8%
[9]
  cell count: 89.2%
